# From PubChem BioAssay AID1159614 (National Center for Advancing Translational Sciences (NCATS), 2016)
# The campaign covered roughly 45,000 compounds. About 65 (0.1%) were called active. Calls follow the shape of the dose curve; as a rule, active = well fitted activation curve with a large enough effect; inconclusive = small, poorly fitted or top-dose-only effect; inactive = no such curve, though single readings can be large or run the other way. This is one part of the list.
# Target: Galactocerebrosidase (Homo sapiens) (UniProt P54803)
# UniProt P54803, sequence (P54803 whole entry, looked up): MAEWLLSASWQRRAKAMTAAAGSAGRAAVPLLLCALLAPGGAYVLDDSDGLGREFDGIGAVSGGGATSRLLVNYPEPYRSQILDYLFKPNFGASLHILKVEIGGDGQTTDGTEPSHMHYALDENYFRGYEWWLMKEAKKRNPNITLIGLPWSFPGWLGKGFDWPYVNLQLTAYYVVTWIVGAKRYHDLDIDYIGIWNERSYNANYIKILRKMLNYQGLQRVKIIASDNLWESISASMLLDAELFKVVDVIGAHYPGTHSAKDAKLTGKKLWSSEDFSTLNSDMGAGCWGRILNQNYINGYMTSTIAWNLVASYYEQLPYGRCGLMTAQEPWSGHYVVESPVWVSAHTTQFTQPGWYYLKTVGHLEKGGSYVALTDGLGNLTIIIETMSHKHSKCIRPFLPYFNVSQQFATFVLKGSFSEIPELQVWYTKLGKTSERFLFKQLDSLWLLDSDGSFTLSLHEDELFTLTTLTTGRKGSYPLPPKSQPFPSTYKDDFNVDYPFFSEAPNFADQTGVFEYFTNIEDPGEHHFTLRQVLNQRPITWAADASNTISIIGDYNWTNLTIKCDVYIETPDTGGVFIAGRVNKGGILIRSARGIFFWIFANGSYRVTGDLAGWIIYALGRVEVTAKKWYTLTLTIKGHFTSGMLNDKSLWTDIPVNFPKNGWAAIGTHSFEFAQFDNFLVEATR
# Assay: A Novel Cell-Based Assay to Identify Small Molecules for B -Galactocerebrosidase; also: nearly all actives have a fitted effect of over 65% in size; as to activation: 0% is about no effect
# Settings: 145M-Twi-hGALC-G270D cells (Twitcher mouse brain line with human GALC G270D), HMU-beta-Gal fluorescence, 48 h; series mostly up to 57.5 µM; activation: at the top concentration
# In short: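 Live 145M-Twi cells (Twitcher mouse brain-derived, GALC-null) stably expressing human GALC-G270D, with a wild-type GALC line, were compound-treated. Residual GALC activity was then read as fluorescence from 0.1 mM final HMU-β-gal at pH 5.2; higher signal means activation.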
# Potency is read from the fitted curve at half-maximal effect.
SMILES,activation,Potency
CCC(Oc1ccccc1F)C(=O)Nc1c(C(=O)c2ccccc2)oc2ccccc12 (stereo not drawn),inactive: -13.3%,
COc1ccc(Br)cc1CNC(=O)CCCn1c(=O)c2cccn2c2ccccc21,inactive: -7.88%,
CC1=C(C)C(=O)C(CCCCC#CCCCC#CCO)=C(C)C1=O,inactive: -14.7%,
Cc1cccc(-c2nc3c(C#N)c[nH]n3c2NC2CCCCC2)c1,inactive: -5.4%,
COc1cc(C(=O)NCC(c2cccnc2)N2CCN(c3ccc(F)cc3)CC2)cc(OC)c1OC (stereo not drawn),inactive: -8.3%,
Cc1nn(-c2ccc3nncn3n2)c(C)c1CCC(=O)Nc1ccc(OC(F)(F)F)cc1,inactive: -21.7%,
Cc1ccc(-c2noc(CN(C3CCCCC3)S(=O)(=O)c3ccc(C)cc3)n2)cc1,inactive: -15.1%,
COc1cccc(-c2nnc3n(Cc4ccc(F)cc4)c(=O)c4ccccc4n23)c1,inactive: -20.8%,
CN(C)c1ccc(C(CNS(=O)(=O)c2ccc(Cl)cc2)N2CCCC2)cc1 (stereo not drawn),inactive: -27.4%,
CC1=C(C(=O)Nc2ccc(C)cc2C)C(c2ccccc2C)n2ncnc2N1 (stereo not drawn),inactive: 0.365%,
COc1ccc(CCNC(=O)NCc2noc3ccccc23)c(OC)c1,inactive: -14.1%,
COc1ccccc1CNC(=O)C1CCN(Cc2nc(-c3ccc(OC)c(OC)c3)oc2C)CC1,inactive: 5.42%,
C#C[C@]1(O)CC[C@H]2[C@@H]3CCc4cc(OC)ccc4[C@H]3CC[C@@]21C,inactive: -12.3%,
Cc1ccccc1CNC(=O)c1ccc(-n2c(C)cc3c2CCCC3)cc1,inactive: -14.2%,
CCCN(CCC)C(=O)Cn1c(=O)n(Cc2ccc(C(=O)NCCc3ccc(OC)c(OC)c3)cc2)c(=O)c2ccccc21,inactive: 22.1%,
COCCNC(=O)c1ccc(Cn2c(SCC(=O)NC(C)C)nc3ccccc3c2=O)cc1,inactive: -9.94%,
CC1=C(C(=O)Nc2ccc(C)cc2C)C(c2sccc2C)n2ncnc2N1 (stereo not drawn),inactive: -5.93%,
COc1ccc(-n2c(SCC(=O)N3CCC(C)CC3)nc3c([nH]c4ccccc43)c2=O)cc1,inactive: -16.3%,
COCCCNC(=O)c1cc(-c2cccnc2)nc2ccccc12,inactive: -1.34%,
CCOc1ccccc1-c1nnc(SCc2ccc(Cl)cc2)o1,inactive: -11.3%,
COc1ccc(OC)c(NC(=O)c2csnn2)c1,inactive: -18.6%,
COc1cc(C=O)ccc1O,inactive: -15.9%,
CCOc1ccccc1N(C)C(=O)c1nn(-c2ccc(C)cc2)c(=O)c2c1c1ccccc1n2C,inactive: -10.9%,
COc1ccc(CNC(=O)c2ccc3c(c2)N(Cc2ccccc2)C(=O)c2ccccc2S3(=O)=O)cc1,inactive: -12.2%,
COc1ccc(-c2cc3nc(C4CCN(C(=O)OC(C)(C)C)CC4)c(C(=O)Nc4cc(Cl)cc(Cl)c4)cn3n2)cc1,inactive: -6.28%,

SMILES,activation,Potency
O=C(Nc1nnc(S(=O)(=O)N2CCCc3ccccc32)s1)c1ccccc1Br,inactive: -10%,
Cc1ccc2occ(CC(=O)Nc3nnc(C(C)C)s3)c2c1,inactive: -13.2%,
COc1ccc2cccc(CCNC(C)=O)c2c1,inactive: -14.4%,
CCOc1cccc(C2c3c(oc4ccccc4c3=O)C(=O)N2c2nc(C)c(C(=O)OC)s2)c1 (stereo not drawn),inactive: -9.63%,
CCOc1ccc(NC(=O)c2cccc(N3CCCS3(=O)=O)c2)cc1,inactive: -10.3%,
Cc1ccc(C)c(N2CCN(C(=O)CN3C(=O)COc4ccc(S(=O)(=O)N5CCOCC5)cc43)CC2)c1,inactive: -16.1%,
CCN(c1cccc(C)c1)C(CNS(=O)(=O)c1ccccc1)c1ccccc1 (stereo not drawn),inactive: -11%,
Cc1cccc(-c2cc(NC(=O)c3ccccc3C)n(-c3ccccc3)n2)c1,inactive: -11.5%,
COC(=O)c1cc2sccc2n1Cc1ccc(F)cc1,inactive: -18.3%,
CCCCC(=O)Nc1nnc(S(=O)(=O)N2CCCCCC2)s1,inactive: -12.8%,
O=C(Nc1ccc(F)c(Cl)c1)C1CCCN(c2ncnc3onc(-c4ccc(F)cc4)c23)C1 (stereo not drawn),inactive: -4.84%,
CCC(=O)N1c2ccccc2CC1C(=O)NCCCN1CCN(c2ccccc2)CC1 (stereo not drawn),inactive: -30.3%,
COc1ccccc1CNC(=O)c1cc2sccc2n1Cc1ccc(F)cc1,inactive: -24.8%,
Cc1ccc(C)c(NC(=O)c2cc(S(=O)(=O)N3CCc4ccccc4C3)ccc2F)c1,inactive: -3.23%,
COc1ccc(C2C=C(c3ccc(C)cc3)Nc3c(C(=O)Nc4ccccc4)cnn32)cc1 (stereo not drawn),inactive: -14.2%,
CCCS(=O)(=O)c1c(S(=O)(=O)CCC)c2cc(C(C)(C)C)ccn2c1C(=O)c1ccc(OC)c(OC)c1,inactive: -12.8%,
COc1ccc(Br)cc1CNC(=O)CCCn1c(=O)c2cccn2c2cccnc21,inactive: 16.5%,
CCc1cccc(NC(=O)Cn2c(C(=O)OC)cc3occc32)c1,inactive: -26.1%,
COCCCn1c(SCc2ccccc2F)nc2c(sc3ccccc32)c1=O,,active: 31.6 µM
COc1ccccc1NC(=O)Cn1c(=O)n(-c2ccccc2Cl)c(=O)c2sc3ccccc3c21,inactive: -2.76%,
O=C(Cn1ncc2c3ccccc3n(Cc3ccccc3)c2c1=O)N1CCCCCC1,inactive: -11.3%,
COc1ccc(-c2noc(-c3ccccc3OCC(=O)Nc3ccc(C(C)=O)cc3)n2)cc1,inactive: -11%,
CN=C(NC#N)NCCSCc1nc[nH]c1C,inactive: -6.7%,
CCOC(=O)c1[nH]c2ccccc2c1NC(=O)c1cc(Cl)ccc1Cl,inactive: -22.7%,
CCN(CC)S(=O)(=O)c1ccc2c(c1)N(CC(=O)Nc1ccc(F)cc1F)C(=O)C1CCCN21 (stereo not drawn),inactive: -14.2%,

SMILES,activation,Potency
Cc1ccc(CNc2ccc(-c3nc(-c4cccnc4)no3)cc2[N+](=O)[O-])cc1,inactive: -8.3%,
COc1ccc(CNC(=O)CCCCCn2c(=O)[nH]c3ccccc3c2=O)cc1,inactive: -12.5%,
Oc1cccc(-c2nc3ncccn3c2Nc2cccc(C(F)(F)F)c2)c1,inactive: 1.39%,
NCCO,inactive: -18% [at 114 µM],
COc1cc(NC(=O)Cn2c(C)cc(C)c(C#N)c2=O)cc(OC)c1,inactive: -12.1%,
CCOC(=O)c1[nH]c2ccccc2c1NC(=O)c1ccc(OC)c(OC)c1,inactive: -8.51%,
CCn1cc(C(=O)NCCc2ccc(Cl)cc2)c(=O)c2cc(S(=O)(=O)N3CCOCC3)ccc21,inactive: -9.12%,
Cc1ccc2c(=O)cc(C(=O)Nc3ccc(S(=O)(=O)N4CCCCC4)cc3)oc2c1C,inactive: -15%,
Cc1cccc(N2CCN(c3ncnc4onc(-c5ccc(F)cc5)c34)CC2C)c1 (stereo not drawn),inactive: -10.6%,
COc1ccccc1Cc1nc2ccccc2nc1SCC(=O)NCc1ccc(F)cc1,inactive: -5.92%,
COc1ccccc1Nc1nc2c(S(=O)(=O)c3ccc(C(C)C)cc3)nnn2c2ccsc12,inactive: -12.6%,
CC(C)(C)C(=O)Nc1ccc(Cl)c(-c2nc3ccccc3[nH]2)c1,inactive: -8.7%,
O=C(Cn1c(=O)n(Cc2ccc(C(=O)NCc3ccccc3Cl)cc2)c(=O)c2ccccc21)Nc1ccc(F)cc1,inactive: -5.24%,
Cc1coc2cc3oc(=O)c(CC(=O)NCCc4ccccc4F)c(C)c3cc12,inactive: -9.54%,
Cc1c(-c2ccccc2)n(-c2ccc(Cl)cc2)c2nc3c(c(=O)n(C)c(=O)n3C)n12,inactive: -12.6%,
Cc1cc(C)c2oc(-c3ccc(NC(=O)c4cc(Br)ccc4Cl)cc3)nc2c1,inactive: -22.1%,
Cc1ccc(NC(=O)CCc2nc3cccnc3n2-c2ccccc2)cc1,inactive: -10.7%,
O=C(Nc1cccc(Cl)c1)N1Cc2ccccc2Oc2ncccc21,inactive: -2.35%,
CCc1ccc(NC(=O)CN2C(=O)C(=O)c3ccccc32)cc1,inactive: -10.9%,
COc1ccc(S(=O)(=O)Nc2ccc(O)c(Sc3nc4ccccc4s3)c2)cc1,inactive: 0.14%,
CCCC(=O)NC1CC(=O)N(c2ccc3c(c2)OCCO3)C1 (stereo not drawn),inactive: -16.6%,
O=C(Nc1cccc(C(=O)OCc2cc(=O)n3nc(C4CC4)sc3n2)c1)c1ccc(F)cc1,inactive: -13.7%,
CC(=O)c1ccc(S(=O)(=O)N2CCC(Oc3ccc(-n4cnnn4)cc3)CC2)cc1,inactive: -2.6%,
COc1ccccc1C1C(C(N)=O)=C(C)Nc2nc(SCc3ccccc3F)nn21 (stereo not drawn),inactive: -8.42%,
Cc1c(C(=O)N(C)C)sc2c1c(=O)n(-c1ccc(Cl)c(Cl)c1)c(=O)n2Cc1ccc(F)cc1,inactive: -9.52%,

SMILES,activation,Potency
O=c1c(-c2ccc(O)cc2)coc2cc(O)cc(O)c12,inactive: -14%,
COc1ccc(NC(=O)CCS(=O)(=O)c2cc(Br)cc3c2N(C(C)=O)CC3)c(OC)c1,inactive: -9.51%,
CCOc1ccccc1NC(=O)c1ccc2oc(=O)c(S(=O)(=O)c3ccc(F)cc3)cc2c1,inactive: -17.9%,
CN(C(=O)CSc1nc2ccc(NC(=O)c3ccc(F)cc3)cc2s1)c1ccccc1,inactive: -36.5%,
Cc1cccc(N2CCN(C(=O)Cn3nc(C)c4sc5ccccc5c4c3=O)CC2C)c1 (stereo not drawn),inactive: -9.47%,
CCn1cc(C(=O)N(C)Cc2ccccc2)c(=O)c2cc(S(=O)(=O)N3CCCCC3)ccc21,inactive: -20.8%,
COc1ccc(-c2onc(C)c2C)cc1S(=O)(=O)NC1CCCCC1,inactive: 4.82%,
CCOC(=O)Nc1ccc2c(c1)N(C(=O)CCN1CCOCC1)c1ccccc1S2,inactive: -8.73%,
CSc1ccc(Nc2nn(-c3ccc(OC(F)(F)F)cc3)nc2C(C)=O)cc1,inactive: -7.88%,
Cc1c(C(=O)N2CCOCC2)oc2c1-c1nn(CC(=O)NCc3ccccc3)cc1CC2,inactive: 0.92%,
Cn1c(=O)n(C)c2cc(CNCc3ccc(C(=O)O)cc3)ccc21,inactive: 4.3%,
CCOC(=O)c1cccc(NC(=O)CCc2c(C)nc3c4cccnc4nn3c2C)c1,inactive: -18.2%,
CCOC(=O)Cn1nc(N2CCN(c3ccc(F)cc3)CC2)ccc1=O,inactive: -18%,
Cc1ccc(CN2C(=O)C3(SCC(=O)N3c3ccc(C)c(C)c3)c3ccccc32)cc1 (stereo not drawn),inactive: -29.3%,
COC(=O)C1=C(c2ccccc2)c2ccccc2S(=O)(=O)N1CC(=O)Nc1cc(C)ccc1C,inactive: -4.99%,
Cc1cccc(N2CCN(c3c(CN4CCCC4)c(=O)oc4ccccc34)CC2)c1C,inactive: -13.2%,
Cc1ccc2c(c1)N(CC(=O)NCc1cccc(Cl)c1)C(=O)c1cccnc1O2,inactive: 8.98%,
COc1ccccc1Cn1c(CNS(=O)(=O)c2c(C)cc(C)cc2C)nc2cccnc21,inactive: -31.6%,
CCOCCn1ccc2c(OCC(=O)Nc3cc(C(F)(F)F)ccc3Cl)cccc2c1=O,inactive: -3.69%,
CCOc1ccc(CCNC(=O)c2cc3cc4ccc(OC)cc4nc3s2)cc1OCC,inactive: -13.7%,
O=C(CSc1c2c(nc3ccc(Cl)cc13)CCCC2)N1CCCCC1,inactive: -9.74%,
Cc1ccccc1OCC(=O)Nc1ccc(S(=O)(=O)Nc2ncccn2)cc1,inactive: -11.4%,
CC(=O)c1cccc(NC(=O)c2ccc3c(c2)CCN3S(=O)(=O)c2ccccc2)c1,inactive: -30.7%,
